{"source": "paper PMC8602290", "about": "“G3BP1 inhibits Cul3^SPOP to amplify AR signaling and promote prostate cancer” (Nature Communications, 2021)", "target": "T1, Speckle-type POZ protein (SPOP), endogenous in 22Rv1 cells (human (endogenous in 22Rv1), UniProt O43791 1-374)", "T1 construct": "SPOP, endogenous protein of human 22Rv1 prostate cancer cells; also called endogenous SPOP; source: endogenous, 22Rv1 lysate or cells", "T1 sequence (O43791 whole entry, the tested form may be a part)": "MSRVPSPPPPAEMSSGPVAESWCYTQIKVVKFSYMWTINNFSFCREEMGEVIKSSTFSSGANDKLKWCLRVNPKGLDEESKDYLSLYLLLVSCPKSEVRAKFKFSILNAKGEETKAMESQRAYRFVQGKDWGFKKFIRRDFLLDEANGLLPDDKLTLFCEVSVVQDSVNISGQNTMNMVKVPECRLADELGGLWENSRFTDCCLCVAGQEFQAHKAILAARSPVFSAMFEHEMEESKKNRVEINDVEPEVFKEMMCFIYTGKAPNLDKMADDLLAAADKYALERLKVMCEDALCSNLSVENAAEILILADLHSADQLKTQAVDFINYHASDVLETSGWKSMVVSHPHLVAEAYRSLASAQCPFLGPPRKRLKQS", "test": "proximity ligation; 22Rv1 cells transfected with FLAG-G3BP1 constructs; Duolink II kit, antibodies against FLAG-M2 and SPOP (endogenous); percentage of cells with signal", "conditions": "partners not purified", "data": [{"binder": "FLAG-G3BP1^NTF2 (22Rv1) (domain or fragment, also called FLAG-NTF2; NTF2 ([…] aa); source: 22Rv1, transfected, in cells or lysate) not shown", "values": [{"measurement": "percentage of cells with PLA positive signal", "value": 75, "unit": "%"}]}]}
